The results in this text go back to article PMC10893529.

Sequences of proteins named here, by UniProt entry; tags and fusion partners are left off. A change or cut given only in a name is not applied to a line headed by its entry. A line that says so, or that is headed by a name, gives the form on record, which may keep a tag or linker. Residues count along the entry.
UniProt P39748, residues 175-366: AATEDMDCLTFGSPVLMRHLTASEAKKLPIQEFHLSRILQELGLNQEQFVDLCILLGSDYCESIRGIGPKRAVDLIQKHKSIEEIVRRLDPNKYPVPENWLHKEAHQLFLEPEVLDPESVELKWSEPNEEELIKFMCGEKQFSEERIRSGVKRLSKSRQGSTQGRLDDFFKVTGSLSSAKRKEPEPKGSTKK
UniProt Q9Y572: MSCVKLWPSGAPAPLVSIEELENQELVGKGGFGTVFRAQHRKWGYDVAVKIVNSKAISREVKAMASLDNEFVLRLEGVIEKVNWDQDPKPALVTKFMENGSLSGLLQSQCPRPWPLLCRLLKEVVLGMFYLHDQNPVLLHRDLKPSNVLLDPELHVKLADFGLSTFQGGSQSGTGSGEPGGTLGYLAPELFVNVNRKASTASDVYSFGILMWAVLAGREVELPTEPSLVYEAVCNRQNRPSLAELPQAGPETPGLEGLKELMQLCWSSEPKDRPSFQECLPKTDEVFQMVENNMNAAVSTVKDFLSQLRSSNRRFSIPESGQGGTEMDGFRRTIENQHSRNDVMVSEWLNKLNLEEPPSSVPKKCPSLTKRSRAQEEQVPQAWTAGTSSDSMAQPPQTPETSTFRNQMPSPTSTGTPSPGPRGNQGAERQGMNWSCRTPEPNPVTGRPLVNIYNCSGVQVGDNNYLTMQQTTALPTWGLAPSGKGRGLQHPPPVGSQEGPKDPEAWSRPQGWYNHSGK
FLAG-tagged RIPK3 mutant aa1-443: residues 1-443 of Q9Y572

Experiment [1] addresses FLAG-IE1 aa1-491 (pHM5156) (human cytomegalovirus) (UniProt P13202). Briefly: co-IP; HEK293T transfected with FLAG-tagged IE1 variants and RIPK3; IP with anti-FLAG magnetic beads.
Experiment [2] deals with FLAG-FEN1 aa175-366 (pHM4273) (UniProt P39748). The experiment is described as follows: co-IP.
Experiment [3] concerns the target T1, FLAG-MLKL (pHM5117) (human) (UniProt Q8NB16).
T1 sequence: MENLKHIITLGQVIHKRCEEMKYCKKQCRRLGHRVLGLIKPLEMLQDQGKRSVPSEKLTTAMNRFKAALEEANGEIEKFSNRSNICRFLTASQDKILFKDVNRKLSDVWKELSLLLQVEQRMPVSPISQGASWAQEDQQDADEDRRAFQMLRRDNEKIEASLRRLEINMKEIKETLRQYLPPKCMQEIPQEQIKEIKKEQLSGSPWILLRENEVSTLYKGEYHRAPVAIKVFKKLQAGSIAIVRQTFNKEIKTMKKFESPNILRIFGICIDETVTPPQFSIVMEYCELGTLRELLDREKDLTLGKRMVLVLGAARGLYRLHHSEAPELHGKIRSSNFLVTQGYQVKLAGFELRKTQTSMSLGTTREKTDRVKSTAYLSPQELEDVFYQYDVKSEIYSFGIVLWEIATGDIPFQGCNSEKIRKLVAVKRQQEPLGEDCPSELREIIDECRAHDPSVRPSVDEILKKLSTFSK
Briefly: co-IP.

Experiment [4] has as its target FLAG-tagged RIPK3 (human) (UniProt Q9Y572). Briefly: co-IP.
Experiment [5] shares this target. Briefly: co-IP; FLAG-tagged RIPK3 variants expressed in HEK293T; purified bacterial IE1 utilized; IP with anti-FLAG magnetic beads; only the binder purified.
Experiment [6] addresses FLAG-tagged RIPK3 mutant aa1-443 (human) (UniProt Q9Y572). The description is as above.

These are yes or no findings as the source states them, for the method shown. Binding seen in cells or lysates may run through a third protein. Some results given as binding are weak or reduced against the parent protein; the word gives no strength. For part of these data: Where a sequence is shown, tags or fusion partners need not be part of it.

For the substance “RIPK3-MYC (pHM5136) (from UniProt Q9Y572 1-518)”, the binding entry in experiment [1] is listed as “binds”.
As to “immediate-early 1 (IE1) protein of human cytomegalovirus, expressed from pcDNA3 (pHM494) (from UniProt P13202 1-491)”, the binding entry in experiment [2] was “binds”; in experiment [3], “no binding”; in experiment [4] it was “binds”.
“purified IE1 expressed in bacteria (from UniProt P13202 1-491)”: the binding result in experiment [5] and in experiment [6] was “binds” each time.
